In patent US20250297030A1 (SHANDONG SIMCERE BIOPHARMACEUTICAL, published 2025):

Biological target: T1, Human MUC17 ECD4131-his (His-tagged human MUC17 protein extracellular domain fusion protein) (human, UniProt Q685J3 fragment)
T1 construct: a truncation of the extracellular domain; also called human MUC17-his protein; human MUC17-His
Experiment: SPR (Biacore 8K), antibody captured on Protein A
Experimental: The strength of antibody-antigen binding was assayed with a BIAcore 8K instrument using an Protein A capture method. First, Protein A was immobilized onto a CM4 chip (purchased from GE, BR-1005-34) using an amino coupling method. According to the instruction of the Amine Coupling Kit (purchased from GE, BR100633), NHS and EDC were mixed with HBS-EP+ pH 7.4 as a mobile phase to activate the chip for about 600 s; the Protein A was diluted to 50 µg/mL with 10 mM sodium acetate (pH 4.5) and injected for 600 s, and finally, the remaining activated sites were blocked with ethanolamine. Then, the affinity of the antibody for the antigen was assayed using a multi-cycle kinetic method; in each cycle, first, the antibody to be tested was captured using the Protein A chip, and then a single concentration of antigen protein was injected. The association and dissociation processes of the antibody with the antigen protein were recorded, and finally, the chip was regenerated using Glycine pH 1.5, wherein the mobile phase was HBS-EP+ (10 mM HEPES, 150 mM NaCl, 3 mM EDTA, 0.05% surfactant P20), the flow rate was […], the regeneration time was 30 s, and the assay temperature was 25° C. Finally, according to a 1:1 binding model, the data were analyzed, and the antibody-antigen binding kinetics parameters, including the association rate constant Ka, the dissociation rate constant Kd, the equilibrium dissociation constant KD, and the maximum binding signal Rmax, were fitted. The association rate (Ka), dissociation rate (Kd), and binding affinity (KD) of the recombinant antibodies Lab315-huFc, Lab316-huFc, Lab320-huFc, Lab331-huFc, and Lab332-huFc with the human MUC17 protein are shown in Table 5.
After the finally obtained various humanized antibodies were expressed and purified, the affinity of the humanized antibodies for the human MUC17 protein was assayed according to the method in Example 3.6.

T1 sequence (Q685J3 other isoform, or with tags, fused parts or gaps): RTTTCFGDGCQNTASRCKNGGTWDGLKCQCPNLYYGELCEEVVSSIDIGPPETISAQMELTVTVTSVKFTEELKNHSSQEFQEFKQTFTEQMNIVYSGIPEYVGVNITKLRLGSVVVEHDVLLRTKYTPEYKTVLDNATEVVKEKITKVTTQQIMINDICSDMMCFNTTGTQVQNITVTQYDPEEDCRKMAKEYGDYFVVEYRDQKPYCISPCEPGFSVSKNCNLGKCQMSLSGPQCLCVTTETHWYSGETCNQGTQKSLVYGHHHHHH

| Binder | Kd [pM] | koff [s⁻¹] | kon [M⁻¹ s⁻¹] |
| --- | --- | --- | --- |
| SCR-7782-001-H1-hFc (Fc fusion, VHH-huFc (C220S) order with human hinge and Fc; also called SCR-7782 humanized antibody) EVQLVESGGGLVQPGGSLRLSCAASGFTFSRGSMSWFRQAPGKEREGVAIISSDGWTGYADSVKGRFTISRDNAKNSLYLQMNSLRAEDTAVYYCAASFLVLRALNPKAWHYWGQGTMVTVSS[omitted - human IgG1 Fc with C220S (EU numbers)] | 2210 | 0.000411 | 186000 |
| SCR-7785-001-H2-hFc (Fc fusion, VHH-huFc (C220S) order with human hinge and Fc; also called SCR-7785 humanized antibody) EVQLVESGGGVVQPGGSLRLSCAASGFTFSRGSWGWFRQAPGKEREAVALISSDGWTFYADSVKGRFTISQDNSKNTLYLQMNSLRAEDTAVYYCAASVLVLRTLNPKAWHHWGQGTMVTVSS[omitted - human IgG1 Fc with C220S (EU numbers)] | 1900 | 0.00069 | 363000 |
| SCR-7785-001-H3-hFc (Fc fusion, VHH-huFc (C220S) order with human hinge and Fc; also called SCR-7785 humanized antibody) EVQLVESGGGVVQPGGSLRLSCAASGDTFSRGSWGWFRQAPGKEREAVALISSDGWTFYADSVKGRFTISQDNSKNTLYLQMNSLRAEDTAVYYCAASVLVLRTLNPKAWHHWGQGTMVTVSS[omitted - human IgG1 Fc with C220S (EU numbers)] | 234 | 7.24e-05 | 309000 |
| SCR-7782-001-H2-hFc (Fc fusion, VHH-huFc (C220S) order with human hinge and Fc; also called SCR-7782 humanized antibody) EVQLVESGGGLVQPGGSLRLSCAASGFTFSRGSMSWFRQAPGKEREGVAIISSDGWTGYADSVKGRFTISQDNAKNSLYLQMNSLRAEDTAVYYCAASFLVLRALNPKAWHYWGQGTMVTVSS[omitted - human IgG1 Fc with C220S (EU numbers)] | 1280 | 0.000256 | 200000 |
| SCR-7785-001-H1-hFc (Fc fusion, VHH-huFc (C220S) order with human hinge and Fc; also called SCR-7785 humanized antibody) EVQLVESGGGVVQPGGSLRLSCAASGFTFSRGSWGWFRQAPGKEREAVALISSDGWTFYADSVKGRFTISRDNSKNTLYLQMNSLRAEDTAVYYCAASVLVLRTLNPKAWHHWGQGTMVTVSS[omitted - human IgG1 Fc with C220S (EU numbers)] | 1560 | 0.000455 | 291000 |
| SCR-7783-001-H4-hFc (Fc fusion, VHH-huFc (C220S) order with human hinge and Fc; also called SCR-7783 humanized antibody) DVQLVESGGGLVQPGGSLRLSCAASGFPSSRGTMAWFRQAPGKEREGVAFINSDGRTSYAESVKGRFTISRDNALSSLYLQMNSLRAEDTAVYYCAASLLYLMTVNAAAYPYWGQGTMVTVSS[omitted - human IgG1 Fc with C220S (EU numbers)] | 409 | 8.77e-05 | 214000 |
| SCR-7783-001-H1-hFc (Fc fusion, VHH-huFc (C220S) order with human hinge and Fc; also called SCR-7783 humanized antibody) EVQLVESGGGLVQPGGSLRLSCAASGFTFSRGTMAWFRQAPGKEREGVAFINSDGRTSYAESVKGRFTISRDNAKNSLYLQMNSLRAEDTAVYYCAASLLYLMTVNAAAYPYWGQGTMVTVSS[omitted - human IgG1 Fc with C220S (EU numbers)] | 1210 | 0.000176 | 145000 |
| SCR-7783-001-H5-hFc (Fc fusion, VHH-huFc (C220S) order with human hinge and Fc; also called SCR-7783 humanized antibody) DVQLVESGGGLVQPGGSLRLSCAASGFPSSRGTMAWFRQAPGKEREGVAFINSDGRTSYAESVKGRFTISRDNALSSLWLQMNSLRAEDTAVYYCAASLLYLMTVNAAAYPYWGQGTMVTVSS[omitted - human IgG1 Fc with C220S (EU numbers)] | 483 | 9.07e-05 | 188000 |
| SCR-7783-001-H6-hFc (Fc fusion, VHH-huFc (C220S) order with human hinge and Fc; also called SCR-7783 humanized antibody) DVQLQASGGGLVQPGGSLRLSCAASGFPSSRGTMAWFRQAPGKEREGVAFINSDGRTSYAESVKGRFTISRDNALSSLYLQMNSLRAEDTAVYYCAASLLYLMTVNAAAYPYWGQGTMVTVSS[omitted - human IgG1 Fc with C220S (EU numbers)] | 498 | 9.61e-05 | 193000 |

Continued, values first:

| Kd [pM] | koff [s⁻¹] | kon [M⁻¹ s⁻¹] | Binder |
| --- | --- | --- | --- |
| 49 | 9.72e-06 | 199000 | SCR-7782-001-H5-hFc (Fc fusion, VHH-huFc (C220S) order with human hinge and Fc; also called SCR-7782 humanized antibody) DVQLQASGGGLVQPGGSLRLSCAASDNTFSRGSMSWFRQAPGKEREGVAIISSDGWTGYADSVKGRFTISQDNAKNSLYLQMNSLRAEDTAVYYCAASFLVLRALNPKAWHYWGQGTMVTVSS[omitted - human IgG1 Fc with C220S (EU numbers)] |
| 58.7 | 1.32e-05 | 224000 | SCR-7782-001-H4-hFc (Fc fusion, VHH-huFc (C220S) order with human hinge and Fc; also called SCR-7782 humanized antibody) DVQLVESGGGLVQPGGSLRLSCAASDNTFSRGSMSWFRQAPGKEREGVAIISSDGWTGYADSVKGRFTISQDNAKNSLYLQMNSLRAEDTAVYYCAASFLVLRALNPKAWHYWGQGTMVTVSS[omitted - human IgG1 Fc with C220S (EU numbers)] |
| 53 | 1.23e-05 | 231000 | SCR-7782-001-H6-hFc (Fc fusion, VHH-huFc (C220S) order with human hinge and Fc; also called SCR-7782 humanized antibody) DVQLVESGGGLVQPGGSLRLSCAASDNTFSRGSMSWFRQAPGKEREGVAIISSDGWTGYADSVKGRFTISQDNAKNSLYLQMNSLRAEDTAMYYCAASFLVLRALNPKAWHYWGQGTQVTVSS[omitted - human IgG1 Fc with C220S (EU numbers)] |
| 222 | 6.29e-05 | 284000 | SCR-7785-001-H6-hFc (Fc fusion, VHH-huFc (C220S) order with human hinge and Fc; also called SCR-7785 humanized antibody) EVQLVESGGGVVQPGGSLRLSCAASGDTFSRGSWGWFRQRPGKEREAVALISSDGWTFYADSVKGRFTISQDNSKNTLYLQMNSLRAEDTAMYYCAASVLVLRTLNPKAWHHWGQGTQVTVSS[omitted - human IgG1 Fc with C220S (EU numbers)] |
| 240 | 7.19e-05 | 300000 | SCR-7785-001-H5-hFc (Fc fusion, VHH-huFc (C220S) order with human hinge and Fc; also called SCR-7785 humanized antibody) EVQLVESGGGVVQPGGSLRLSCAASGDTFSRGSWGWFRQAPGKEREAVALISSDGWTFYADSVKGRFTISQDNSKNTLYLQMNSLRAEDTAMYYCAASVLVLRTLNPKAWHHWGQGTQVTVSS[omitted - human IgG1 Fc with C220S (EU numbers)] |
| 134 | 2.58e-05 | 192000 | SCR-7782-001-H3-hFc (Fc fusion, VHH-huFc (C220S) order with human hinge and Fc; also called SCR-7782 humanized antibody) EVQLVESGGGLVQPGGSLRLSCAASGNTFSRGSMSWFRQAPGKEREGVAIISSDGWTGYADSVKGRFTISQDNAKNSLYLQMNSLRAEDTAVYYCAASFLVLRALNPKAWHYWGQGTMVTVSS[omitted - human IgG1 Fc with C220S (EU numbers)] |
| 290 | 8.41e-05 | 290000 | SCR-7785-001-H7-hFc (Fc fusion, VHH-huFc (C220S) order with human hinge and Fc; also called SCR-7785 humanized antibody) EVQLQASGGGVVQPGGSLRLSCAASGDTFSRGSWGWFRQAPGKEREAVALISSDGWTFYADSVKGRFTISQDNSKNTLYLQMNSLRAEDTAVYYCAASVLVLRTLNPKAWHHWGQGTMVTVSS[omitted - human IgG1 Fc with C220S (EU numbers)] |
| 241 | 7.41e-05 | 307000 | SCR-7785-001-H4-hFc (Fc fusion, VHH-huFc (C220S) order with human hinge and Fc; also called SCR-7785 humanized antibody) EVQLVESGGGVVQPGGSLRLSCAASGDTFSRGSWGWFRQAPGKEREAVALISSDGWTFYADSVKGRFTISQDNTKNTLYLQMNSLRAEDTAVYYCAASVLVLRTLNPKAWHHWGQGTMVTVSS[omitted - human IgG1 Fc with C220S (EU numbers)] |
| 394 | 8.28e-05 | 210000 | SCR-7783-001-H2-hFc (Fc fusion, VHH-huFc (C220S) order with human hinge and Fc; also called SCR-7783 humanized antibody) EVQLVESGGGLVQPGGSLRLSCAASGFPSSRGTMAWFRQAPGKEREGVAFINSDGRTSYAESVKGRFTISRDNAKNSLYLQMNSLRAEDTAVYYCAASLLYLMTVNAAAYPYWGQGTMVTVSS[omitted - human IgG1 Fc with C220S (EU numbers)] |
| 407 | 8.54e-05 | 210000 | SCR-7783-001-H3-hFc (Fc fusion, VHH-huFc (C220S) order with human hinge and Fc; also called SCR-7783 humanized antibody) DVQLVESGGGLVQPGGSLRLSCAASGFPSSRGTMAWFRQAPGKEREGVAFINSDGRTSYAESVKGRFTISRDNAKNSLYLQMNSLRAEDTAVYYCAASLLYLMTVNAAAYPYWGQGTMVTVSS[omitted - human IgG1 Fc with C220S (EU numbers)] |
| 391 | 8.52e-05 | 218000 | SCR-7783-001-H7-hFc (Fc fusion, VHH-huFc (C220S) order with human hinge and Fc; also called SCR-7783 humanized antibody) DVQLVESGGGLVQPGGSLRLSCAASGFPSSRGTMAWFRQAPGKEREGVAFINSDGRTSYAESVKGRFTISRDNALSSLYLQMNSLRAEDTAMYYCAASLLYLMTVNAAAYPYWGQGTQVTVSS[omitted - human IgG1 Fc with C220S (EU numbers)] |
